# Data reported in PubChem BioAssay AID504339 (National Center for Advancing Translational Sciences (NCATS), 2011).
# Among all 390,000 compounds or so, about 17,000 (4.4%) were called active. Inconclusive results, whose numbers are uncertain, are shown with a selection of clear calls. The call rests on the fitted dose curve; in most records, active means well fitted inhibition curve with a large enough effect; inconclusive means small, poorly fitted or top-dose-only effect; inactive means no such curve, though single readings can be large or run the other way. Potencies of inconclusive entries are doubtful fits and often do not repeat. A structure can be active in one record and inactive in another.
# Target: Lysine-specific demethylase 4A (Homo sapiens) (UniProt O75164)
# Assay: qHTS Assay for Inhibitors of JMJD2A-Tudor Domain; further: nearly all actives have a fitted effect of over 50% in size
# Conditions: AlphaScreen JMJD2A-Tudor / H3K4me3 peptide binding; series mostly up to 114 µM
# Potency means the concentration at half of the fitted maximal effect; tags describe the fitted curve by direction and shape.
# UniProt O75164, sequence (O75164 whole entry, looked up, the tested form may be a part): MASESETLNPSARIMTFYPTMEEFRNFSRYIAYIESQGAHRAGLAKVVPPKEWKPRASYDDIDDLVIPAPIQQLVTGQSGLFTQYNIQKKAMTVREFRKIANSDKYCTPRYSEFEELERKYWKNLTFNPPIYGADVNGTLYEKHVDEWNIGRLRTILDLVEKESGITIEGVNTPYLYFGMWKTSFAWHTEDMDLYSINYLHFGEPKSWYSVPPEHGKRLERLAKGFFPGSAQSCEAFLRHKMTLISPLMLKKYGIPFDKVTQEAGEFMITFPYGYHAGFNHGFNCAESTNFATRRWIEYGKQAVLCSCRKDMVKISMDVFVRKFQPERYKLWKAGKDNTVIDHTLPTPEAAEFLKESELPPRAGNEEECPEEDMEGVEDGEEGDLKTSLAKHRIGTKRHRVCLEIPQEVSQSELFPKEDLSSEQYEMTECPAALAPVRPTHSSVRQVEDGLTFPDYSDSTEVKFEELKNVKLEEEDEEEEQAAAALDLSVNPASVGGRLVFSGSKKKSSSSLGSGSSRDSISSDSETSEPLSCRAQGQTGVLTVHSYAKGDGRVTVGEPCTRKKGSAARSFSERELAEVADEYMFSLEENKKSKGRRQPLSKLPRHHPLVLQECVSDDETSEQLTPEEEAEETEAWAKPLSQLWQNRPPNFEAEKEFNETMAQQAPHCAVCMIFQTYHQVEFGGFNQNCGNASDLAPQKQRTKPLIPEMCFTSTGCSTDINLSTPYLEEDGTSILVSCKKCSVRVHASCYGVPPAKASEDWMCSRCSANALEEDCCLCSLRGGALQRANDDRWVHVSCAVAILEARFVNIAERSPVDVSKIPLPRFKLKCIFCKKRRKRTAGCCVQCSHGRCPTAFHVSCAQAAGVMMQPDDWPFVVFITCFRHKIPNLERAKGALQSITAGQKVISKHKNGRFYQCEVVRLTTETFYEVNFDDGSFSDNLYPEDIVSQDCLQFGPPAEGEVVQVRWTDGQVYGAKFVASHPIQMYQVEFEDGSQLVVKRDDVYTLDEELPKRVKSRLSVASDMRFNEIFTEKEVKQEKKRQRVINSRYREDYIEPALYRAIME
row,SMILES,Potency
1,COc1ccccc1CN(C)C(=O)c1ccc(S(=O)(=O)Nc2c(C)n(C)n(-c3ccccc3)c2=O)cc1,inactive
2,CCC(C)c1ccc(NC(=O)c2[nH]c(C)c(C(C)=O)c2C)cc1 (centres undefined),"inconclusive: 89.1 µM [inhibitor, partial curve]"
3,CCC(=O)NC(=S)NNC(=O)c1ccc(NC(=O)c2ccccc2)cc1,"inconclusive: 39.8 µM [inhibitor, single point]"
4,CCCn1nc(C(=O)Nc2nc(-c3ccccn3)cs2)c2ccccc2c1=O,active: 56.2 µM
5,CCOC(=O)c1nc(Nc2cccc(C)c2)c2ccccc2n1,active: 50.1 µM
6,S=c1nc(C2CC2)n(-c2ccccc2)[nH]1,active: 2.51 µM
7,COc1ccc(N2C(=O)/C(=C/c3cccs3)NC2=S)cc1,active: 79.4 µM
8,CCOC(=O)Cc1[nH]nc2c1C(C1C=CCCC1)C(C#N)=C(N)O2 (centres undefined),"inconclusive: 89.1 µM [inhibitor, single point]"
9,CC(C)CN(CC(C)C)C(=O)Cc1coc2ccc3ccccc3c12,inactive
10,CCOc1ccccc1NC(=O)COC(=O)c1c[nH]c2ccccc12,inactive
11,Cc1ccccc1N1CCN(Cc2ccc(Br)o2)CC1,active: 1 µM
12,CC(=O)c1ccc[n+](CC(=O)NC(C)c2ccccc2)c1 (centres undefined),inactive
13,O=C(CCc1ccccc1)Nc1ncnc2c1C(c1ccccc1)c1c(ccc3ccccc13)O2 (centres undefined),inactive
14,O=C(NCCCN1CCN(c2ccccc2)CC1)c1cc2c(s1)-c1ccccc1OC2,"inconclusive: 70.8 µM [inhibitor, partial curve, poor fit]"
15,Cc1ccc(-n2cc(CN3CCN(Cc4nccn4C)CC3)c(-c3ccc(F)cc3)n2)cc1,"inconclusive: 50.1 µM [inhibitor, partial curve]"
16,COc1ccc(C(=O)Nc2oc(-c3ccccc3)c(-c3ccccc3)c2C#N)cc1OC,"inconclusive: 56.2 µM [inhibitor, partial curve]"
17,COc1cc(/C=C\C(=O)NCc2ccc3[nH]c(C)cc3c2)cc(OC)c1OC,"inconclusive: 56.2 µM [inhibitor, partial curve]"
18,O=C(COC(=O)Cc1cn2ccsc2n1)Nc1nc2ccccc2s1,"inconclusive: 79.4 µM [inhibitor, single point]"
19,O=C(O)c1ccc2c(c1)C(=O)N([C@H](Cc1c3ccccc3cc3ccccc13)C(=O)O)C2=O,"inconclusive: 89.1 µM [inhibitor, single point]"
20,CCN(CC)c1ccc(NC(=S)NC(=O)Cc2ccccc2)cc1,active: 25.1 µM
21,COc1ccc(OCC(O)CN2CCN(c3ccccc3)CC2)cc1 (centres undefined),"inconclusive: 70.8 µM [inhibitor, partial curve, poor fit]"
22,COc1ccc(C)cc1NC(=O)C(OC(=O)c1cnccn1)c1ccccc1 (centres undefined),inactive
23,Cc1ccc(-c2nnc(SCC(=O)N3CCCC3)o2)cc1C,"inconclusive: 89.1 µM [inhibitor, single point]"
24,COc1ccc(C2N(c3ccccc3)CCN2c2ccccc2)cc1O,"inconclusive: 39.8 µM [inhibitor, partial curve]"
25,COc1ccc(NC(=O)C(Cc2ccccc2)n2cccc2)c(OC)c1 (centres undefined),inactive

row,SMILES,Potency
1,CN(C)c1ccc(S(=O)(=O)N2CCCCC2)cc1NC(=O)CN1C(=O)NC(C)(c2ccccc2)C1=O (centres undefined),inactive
2,NC(=O)c1ccc2nc(NC(=O)c3ccc(N)cc3)sc2c1,"inconclusive: 79.4 µM [inhibitor, partial curve]"
3,C=CCN1C(=O)/C(=C\C=C2\N(C)c3ccccc3C2(C)C)SC1=S,"inconclusive: 2.51 µM [inhibitor, full curve]"
4,O=C(NCCCn1ccnc1)C(=O)NCC(c1cccnc1)N1CCN(c2ccccc2)CC1 (centres undefined),active: 56.2 µM
5,O=C1N=C(N2CCCC2)S/C1=C\c1ccccc1,active: 56.2 µM
6,CCCN1CCC(=O)N([C@H](CSc2ccc(Br)cc2)Cc2ccccc2)CC1,"inconclusive: 56.2 µM [inhibitor, partial curve]"
7,Cc1cccc(-c2cc3nc(C)cc(C)n3n2)c1,inactive
8,Cc1cc(-c2cc(-c3ccc(Cl)cc3)nc(N)c2C#N)co1,active: 39.8 µM
9,COc1ccc(NS(=O)(=O)c2cccc(C(=O)NN=C(C)c3ccco3)c2)cc1,"inconclusive: 50.1 µM [inhibitor, partial curve]"
10,COc1cc(CNn2c(C)n[nH]c2=S)cc(Cl)c1OCC(=O)NC(C)(C)C,active: 56.2 µM
11,O=C(NCc1cccc(Cl)c1)C1CCC(=O)N(CCCN2CCCC2=O)C1 (centres undefined),inactive
12,Cc1ccc(C)c(C(=O)C(C)Sc2nc3nn(-c4ccccc4)c(=O)c-3c3n2CCCCC3)c1 (centres undefined),"inconclusive: 7.08 µM [inhibitor, full curve]"
13,CC(=O)Nc1ccc(S(=O)(=O)N2CCN(CCCOc3cc(C)ccc3C)CC2)cc1,"inconclusive: 56.2 µM [inhibitor, partial curve]"
14,O=C(Cc1ccc(Br)cc1)N1CCN(C(=O)c2ccco2)CC1,inactive
15,Cc1onc(-c2ccccc2Cl)c1C(=O)N1CCCc2ccccc21,inactive
16,CCn1ccnc1CN(C)C(=O)CCc1nnc(CCC2CCCCC2)o1,"inconclusive: 31.6 µM [inhibitor, partial curve]"
17,O=C(COc1ccc(Cl)cc1)NC1=NN(c2ccccc2)C(=O)C1,"inconclusive: 11.2 µM [inhibitor, partial curve, poor fit]"
18,Cc1ccc(NC(=S)NCC23C=CC(O2)C2C(=O)N(c4ccc(C)cc4)C(=O)C23)cc1 (centres undefined),active: 89.1 µM
19,COc1ccc(NC(=O)C(c2ccc(OC)cc2)N(C)C(=O)CNC(C)=O)cc1 (centres undefined),"inconclusive: 56.2 µM [inhibitor, partial curve]"
20,O=C(Cn1cncn1)N/N=C/c1ccccc1O,active: 56.2 µM
21,COc1cccc(-c2nc(CS(=O)CC(=O)N3CCN(c4cccc(C(F)(F)F)c4)CC3)c(C)o2)c1 (centres undefined),"inconclusive: 50.1 µM [inhibitor, partial curve, poor fit]"
22,COc1ccc(C2CC(=O)N3CN(C4CCCCC4)CSC3=C2C#N)cc1 (centres undefined),active: 7.08 µM
23,O=C1C2C3c4ccccc4C(c4ccccc43)C2C(=O)N1/N=C/c1cccc(O)c1 (centres undefined),inactive
24,CCc1ccc(CNC(=O)CSCc2cnn(-c3ccccc3)c2-n2cccc2)cc1,inactive
25,Cc1ccc(-n2c(C)cc(/C=N/NC(=O)c3ccncc3)c2C)c(C)c1,"inconclusive: 56.2 µM [inhibitor, partial curve]"

row,SMILES,Potency
1,C#CCOCCOCCOCCNc1nc(N2CCN(C(=O)C([C@@H](C)CC)n3cc(C(N)COC(=O)C(F)(F)F)nn3)CC2)nc(N2CCN(C(=O)[C@H](CCCCN)n3cc(C(N)[C@H](C)CC)nn3)CC2)n1 (some centres undefined),active: 56.2 µM
2,CC(=O)Nc1cc(O)c2nonc2c1O,active: 25.1 µM
3,Cc1oc(-c2ccc3ccccc3c2)nc1CN(C)C(C)c1ccncn1 (centres undefined),"inconclusive: 35.5 µM [inhibitor, partial curve]"
4,O=S(=O)(N/N=C1/CC(c2ccccc2)Oc2ccccc21)c1ccccc1 (centres undefined),inactive
5,Cc1ccc(CNC(=O)c2ccc(Cn3cc(-c4ccc(C)cc4)nc3-c3ccncc3)cc2)cc1,"inconclusive: 44.7 µM [inhibitor, partial curve]"
6,COc1ccc(Nc2nc(OC)nc(OC)n2)cc1,inactive
7,COc1ccc(C(=O)Nc2ccc(-c3cn4ccsc4n3)cc2)cc1S(=O)(=O)N1CCOCC1,inactive
8,CC(=O)Nc1nonc1-c1nnc(SCc2ccccc2Cl)n1C,inactive
9,COc1cc2c(cc1OC)n(CC(=O)c1ccc(C)cc1)c(=O)n1nc(CCn3nc(C)cc3C)nc21,inactive
10,O=C(NCc1ccccc1)C(c1ccccc1)N(C(=O)c1csnn1)c1ccccc1 (centres undefined),"inconclusive: 3.98 µM [inhibitor, single point]"
11,O=C(CN1CCN(CC(=O)c2ccc(Cl)cc2)CC1)c1ccc(Cl)cc1,"inconclusive: 79.4 µM [inhibitor, partial curve]"
12,COc1cc(/C=C2\C(=O)ON=C2c2ccc(Cl)cc2)ccc1O,"inconclusive: 11.2 µM [inhibitor, full curve]"
13,O=C(N/N=C/c1ccccc1)c1ccc(CN2C(=O)c3cccc4cccc2c34)cc1,"inconclusive: 70.8 µM [inhibitor, single point]"
14,O=C(c1cccc(Cl)c1)N1CCn2c1nc1ccccc12,inactive
15,Cc1cc(SCC(=O)c2ccccc2)nc(=O)[nH]1,inactive
16,O=C(NCc1ccco1)Nc1ccc(OC(F)(F)F)cc1,inactive
17,CC(=O)NC(CC(=O)NC1CCCCC1)c1ccccc1 (centres undefined),inactive
18,O=C(NCCCN1CCN(c2ccc(F)cc2)CC1)c1ccc2nc(CCc3ccccc3)oc2c1,"inconclusive: 25.1 µM [inhibitor, full curve, poor fit]"
19,CC1=NN(c2ccccc2)C(=O)/C1=C\c1ccc(Oc2ccc([N+](=O)[O-])cc2[N+](=O)[O-])cc1,active: 39.8 µM
20,CC(C)c1ccc(NC(=O)Cn2c(=O)oc3cc(S(=O)(=O)N4CCCC4)ccc32)cc1,inactive
21,COc1ccc(/C=C/C(=O)OCC(=O)Nc2ccc(Cl)c(S(=O)(=O)N(C)C)c2)cc1OC,"inconclusive: 79.4 µM [inhibitor, partial curve]"
22,CCOc1cc(N2CCOCC2)c(OCC)cc1NC(=O)CN1CCCC(C)C1 (centres undefined),"inconclusive: 31.6 µM [inhibitor, partial curve]"
23,c1ccc(Oc2cccc(OCCCCN3CCCC3)c2)cc1,active: 35.5 µM
24,CCOc1ccccc1N1CCN(C(=O)c2ccc3[nH]c4c(c3c2)CCCC4)CC1,active: 44.7 µM
